From PubChem BioAssay AID588342 (National Center for Advancing Translational Sciences (NCATS), 2011)
Among all 360,000 compounds or so, about 25,000 (6.9%) were called active. The inconclusive results got no clear call from the source; some entries with a clear call stand among them for comparison. The call rests on the fitted dose curve; in most records, active means well fitted inhibition curve with a large enough effect; inconclusive means small, poorly fitted or top-dose-only effect; inactive means flat fitted curve, though single readings scatter. Where the call is inconclusive, the potency comes from a doubtful curve fit.

The molecules below were run against Luciferin 4-monooxygenase (Photinus pyralis) (UniProt P08659) (assay: qHTS profiling assay for firefly luciferase inhibitor/activator using purifed enzyme and Km concentrations of substrates (counterscreen for miR-21 project)). Conditions: purified FLuc, luminescence inhibition; activity change, negative = inhibition: at 57.5 µM (top of the series).
How it was run: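 Purified P. pyralis luciferase (10nM final) with 10uM D-luciferin and 10uM ATP (Km levels) in 50mM Tris acetate pH 7.5, 10mM Mg acetate, 0.01% Tween-20, 0.05% BSA; qHTS 6-point titration, ~60 µM downward; luminescence read.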
Further: nearly all actives have a fitted effect of over 55% in size.
Potency means the concentration at half of the fitted maximal effect; tags describe the fitted curve by direction and shape.
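Wherever activity change, negative = inhibition is given: plate controls were vehicle for no effect and reference inhibitor for full effect.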

Sequence of UniProt P08659 (P08659 whole entry, looked up): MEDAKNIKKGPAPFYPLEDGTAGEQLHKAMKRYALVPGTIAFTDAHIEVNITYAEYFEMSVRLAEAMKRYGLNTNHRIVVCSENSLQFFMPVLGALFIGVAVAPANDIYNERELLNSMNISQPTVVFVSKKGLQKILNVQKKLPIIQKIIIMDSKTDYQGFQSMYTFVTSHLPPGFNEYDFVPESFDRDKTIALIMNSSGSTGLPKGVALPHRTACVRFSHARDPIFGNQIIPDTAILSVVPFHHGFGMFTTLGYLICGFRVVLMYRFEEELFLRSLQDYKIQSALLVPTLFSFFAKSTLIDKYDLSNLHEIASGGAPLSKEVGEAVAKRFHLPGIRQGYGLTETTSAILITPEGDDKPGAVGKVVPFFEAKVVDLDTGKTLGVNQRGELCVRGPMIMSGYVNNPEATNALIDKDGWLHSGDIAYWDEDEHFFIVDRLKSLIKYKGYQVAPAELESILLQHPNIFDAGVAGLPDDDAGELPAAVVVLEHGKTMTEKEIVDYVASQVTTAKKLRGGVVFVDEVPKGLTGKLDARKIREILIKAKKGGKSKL

Row | SMILES | Potency | activity change, negative = inhibition
1 | COc1cc(C(=O)/C=C/c2cccnc2)ccc1O | active: 19 µM | –
2 | COc1ccccc1CCNC(=O)C(=O)NCC(c1ccco1)S(=O)(=O)c1ccc(F)cc1 (stereo not given) | – | inactive: -0.326%
3 | COc1ccc(N2CC(NC(=O)COc3ccc(F)cc3)CC2=O)cc1OC (stereo not given) | – | inactive: 2.25%
4 | NS(=O)(=O)c1ccc(O)c(NC(=O)c2ccc([N+](=O)[O-])cc2)c1 | – | inactive: -8.38%
5 | Cc1nnc(SCC(=O)N2CC(=O)Nc3ccccc32)s1 | – | inactive: -0.853%
6 | CC(C)(C)OC(=O)N1CCC(c2c(C(=O)Nc3ccc4c(c3)OCCO4)cnn2-c2ccc(F)cc2F)CC1 | inconclusive: 21.3 µM [inhibitor, partial curve, poor fit] | –
7 | C(=N/Nc1cc(N2CCOCC2)nc(N2CCOCC2)n1)/c1ccccc1 | – | inactive: -3.51%
8 | Cc1nnc(C)n1/N=C/c1ccc(-c2ccccc2Cl)o1 | – | inactive: -12.6%
9 | Cc1cc(C)c2c(c1)SC1=NC(c3ccccc3)(C(F)(F)F)NC(=O)N12 (stereo not given) | inconclusive: 33.8 µM [inhibitor, partial curve, poor fit] | –
10 | CCOC(=O)C(NC(=O)NCc1ccccc1OC)(OCC)C(F)(F)F (stereo not given) | inconclusive: 23.9 µM [inhibitor, single point] | –
11 | CCOc1ccc2[nH]c3c(N4CCc5ccccc5C4)ncnc3c2c1 | inconclusive: 37.9 µM [inhibitor, single point] | –
12 | CCOC(=O)c1ccc(NC(=O)CSc2ccc(-c3ccccn3)nn2)cc1 | active: 10.7 µM | –
13 | O=C(Nc1cccc(OCc2cc(=O)n3ccccc3n2)c1)c1ccccc1Br | inconclusive: 26.9 µM [inhibitor, partial curve] | –
14 | O=C(/C=C/c1ccc(Cl)cc1Cl)NC(=S)Nc1ccccn1 | inconclusive: 1.9 µM [inhibitor, full curve] | –
15 | Cc1ccccc1-n1c(-c2csc(C)c2C)n[nH]c1=S | inconclusive: 16.9 µM [inhibitor, partial curve] | –
16 | COC(=O)c1c(-c2ccco2)csc1NC(=O)C1CC=CCC1C(=O)O (stereo not given) | inconclusive: 23.9 µM [inhibitor, single point] | –
17 | O=C(CCCN1C(=O)c2ccccc2C1=O)Oc1ccc(Cl)cc1 | – | inactive: -5.24%
18 | Cc1c(Cc2ccccc2)c(=O)oc2cc(OCC(=O)c3ccccc3)ccc12 | – | inactive: -14.4%
19 | CCn1cc(Cl)c(C(=O)Nc2cc(C(=O)OC)cc(C(=O)OC)c2)n1 | – | inactive: 0.523%
20 | COCCN1Cc2cccc(C(=O)Nc3ccc(C)cc3)c2C1=O | inconclusive: 37.9 µM [inhibitor, partial curve, poor fit] | –
21 | O=C(N/N=C/c1c[nH]c2ccccc12)C1COc2ccccc2O1 (stereo not given) | inconclusive: 21.3 µM [inhibitor, single point] | –
22 | Cc1cc(C)n2nc(CNC(=O)c3ccccc3Cl)nc2n1 | – | inactive: 1.67%
23 | O=C(/C=C/c1cn(CC(O)CN2CCCCC2)c2ccccc12)c1ccccc1 (stereo not given) | inconclusive: 37.9 µM [inhibitor, partial curve, poor fit] | –
24 | CN(C)c1ccc(C2C3=C(CCCC3=O)OC3=C2C(=O)CCC3)cc1 | – | inactive: 0.402%
25 | CC(=O)NCCC(=O)Nc1nc(-c2ccc3ccccc3c2)cs1 | inconclusive: 23.9 µM [inhibitor, single point] | –

Row | SMILES | Potency | activity change, negative = inhibition
26 | O=C(CNC(=O)c1ccc(Cl)cc1Cl)OCC(=O)c1ccc2c(c1)OCCO2 | active: 16.9 µM | –
27 | CCOc1ccccc1NS(=O)(=O)c1ccc2c(c1)CC(C)N2C(=O)C1CC1 (stereo not given) | – | inactive: -4.28%
28 | COc1ccc(C2CC(=O)N3CN(c4ccc(C)c(Cl)c4)CSC3=C2C#N)cc1 (stereo not given) | inconclusive: 30.1 µM [inhibitor, single point] | –
29 | Cc1ccc(C2CC(c3ccco3)=NN2S(C)(=O)=O)cc1 (stereo not given) | inconclusive: 26.9 µM [inhibitor, single point] | –
30 | O=C(CCC(=O)Nc1ccccc1)NCCO | – | inactive: -0.825%
31 | CC(C)c1ccc(N2CC(C(=O)Nc3nccs3)CC2=O)cc1 (stereo not given) | inconclusive: 16.9 µM [inhibitor, partial curve] | –
32 | Cc1ccc(/C=C(\NC(=O)c2ccc(C)cc2)c2nc(=S)[nH][nH]2)cc1 | inconclusive: 30.1 µM [inhibitor, single point] | –
33 | Cc1cccc(CSc2nnc(NC(=O)CSc3nnc(C)s3)s2)c1 | inconclusive: 37.9 µM [inhibitor, partial curve, poor fit] | –
34 | NC(=O)c1ccc(OCC2CCCO2)cc1 (stereo not given) | – | inactive: -3.33%
35 | CCN(CC)c1ccc(/C=N\NC(=O)c2cccc3cc[nH]c23)cc1 | inconclusive: 21.3 µM [inhibitor, partial curve] | –
36 | CCCN(Cc1ccccc1)C(=S)Nc1ccc(F)cc1 | – | inactive: 3.77%
37 | O=S(=O)(c1cccs1)N1CCCc2cccc(O)c21 | active: 19 µM | –
38 | Cc1cc(C(=O)CSc2nc3ccccc3c(=O)[nH]2)c(C)n1C | inconclusive: 23.9 µM [inhibitor, partial curve] | –
39 | CC1=CC(=C2C(=O)c3ccccc3C2=O)C=C(C)O1 | inconclusive: 5.36 µM [inhibitor, partial curve, poor fit] | –
40 | Cc1nc(-c2ccccc2)sc1-c1ccn[nH]1 | active: 1.51 µM | –
41 | O=C(N/N=C/c1c[nH]c2ccccc12)c1cccs1 | active: 9.53 µM | –
42 | CCOc1ccc2nc(N3CCN(C(=O)c4ccc(S(=O)(=O)CC)cc4)CC3)sc2c1 | – | inactive: -3.98%
43 | COc1ccc(/C=N/NC(=O)c2nonc2C)cc1 | active: 1.9 µM | –
44 | C=C(CC)C(=O)c1ccc(OCC(=O)O)c(Cl)c1Cl | inconclusive: 15.1 µM [inhibitor, partial curve, poor fit] | –
45 | O=C(Nc1nc(-c2ccccc2)cs1)c1ccccc1F | active: 16.9 µM | –
46 | COc1ccc(Cn2c(=O)[nH]c3cc(C(=O)NCCC(C)C)ccc3c2=O)cc1 | – | inactive: 2.09%
47 | Cc1cc(C)c(NC(=O)CSc2nc3ccccc3c3nc(CCn4cncc4C)nn23)c(C)c1 | – | inactive: -6.11%
48 | Cc1ccc(-c2cc(-c3nnc(SCC(=O)NC(C)C(C)C)n3N)c3ccccc3n2)cc1 (stereo not given) | active: 8.49 µM | –
49 | CC(/C=C/c1ccco1)=N/NC(=O)c1ccccc1Cl | inconclusive: 21.3 µM [inhibitor, single point] | –
50 | Cc1ccc(NC(=S)c2nc3ccccc3[nH]2)cc1 | active: 0.675 µM | –
